In the supplement of paper PMC8728848:
The other results are listed elsewhere or left out.

Experiments:
Assay in all cases: glycan array binding signal (z-score within array); higher = stronger binding
Conditions in all cases: glycan notation: IUPAC condensed, linker removed
[1] = molecular target: Gal(a1-3)Gal(b1-4)GlcNAc(b1-2)Man
Method in brief: (§1)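 The binding signal is a Z-score computed within each array and averaged over linkers. Arrays of the same protein sequence at different concentrations or buffers were also averaged together. Data originate from 3228 arrays in the Consortium for Functional Glycomics database, kept only where the protein sequence was available.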

[2] = molecular target: Gal(a1-3)Gal(b1-4)GlcNAc(b1-2)Man(a1-3)[Gal(a1-3)Gal(b1-4)GlcNAc(b1-2)Man(a1-6)]Man(b1-4)GlcNAc(b1-4)GlcNAc
Method in brief: as §1

[3] = molecular target: Gal(a1-3)Gal(b1-4)GlcNAc(b1-3)GalNAc
Method in brief: as §1

[4] = molecular target: Gal(a1-3)Gal(b1-4)GlcNAc(b1-6)GalNAc
Method in brief: as §1

[5] = molecular target: Gal(a1-3)Gal(b1-4)[Fuc(a1-3)]GlcNAc
Method in brief: as §1

[6] = molecular target: Gal(a1-3)Gal(b1-4)[Fuc(a1-3)]GlcNAc(b1-2)Man(a1-3)[Gal(a1-3)Gal(b1-4)[Fuc(a1-3)]GlcNAc(b1-2)Man(a1-6)]Man(b1-4)GlcNAc(b1-4)GlcNAc
Method in brief: as §1

Gal(a1-3)GalNAc = molecular target: Gal(a1-3)GalNAc
Method in brief: as §1

[7] = molecular target: Gal(a1-3)[Gal(a1-4)]Gal(b1-4)GlcNAc
Method in brief: as §1

[8] = molecular target: Gal(a1-4)Gal(b1-3)GlcNAc(b1-2)Man(a1-3)[Gal(a1-4)Gal(b1-3)GlcNAc(b1-2)Man(a1-6)]Man(b1-4)GlcNAc(b1-4)GlcNAc
Method in brief: as §1

Gal(a1-4)Gal(b1-4)Glc = molecular target: Gal(a1-4)Gal(b1-4)Glc
Method in brief: as §1

Gal(a1-4)Gal(b1-4)GlcNAc = molecular target: Gal(a1-4)Gal(b1-4)GlcNAc
Method in brief: as §1

[9] = molecular target: Gal(a1-4)Gal(b1-4)GlcNAc(b1-2)Man(a1-3)[Gal(a1-4)Gal(b1-4)GlcNAc(b1-2)Man(a1-6)]Man(b1-4)GlcNAc(b1-4)GlcNAc
Method in brief: as §1

[10] = molecular target: Gal(a1-4)Gal(b1-4)GlcNAc(b1-3)Gal(b1-4)Glc
Method in brief: as §1

Gal(a1-4)GlcNAc = molecular target: Gal(a1-4)GlcNAc
Method in brief: as §1

Gal(a1-6)Glc = molecular target: Gal(a1-6)Glc
Method in brief: as §1

Gal(b1-2)Gal = molecular target: Gal(b1-2)Gal
Method in brief: as §1

Gal(b1-3)Gal = molecular target: Gal(b1-3)Gal
Method in brief: as §1

Gal(b1-3)Gal(b1-4)GlcNAc = molecular target: Gal(b1-3)Gal(b1-4)GlcNAc
Method in brief: as §1

Gal(b1-3)GalNAc = molecular target: Gal(b1-3)GalNAc
Method in brief: as §1

[11] = molecular target: Gal(b1-3)GalNAc(a1-3)[Fuc(a1-2)]Gal(b1-4)Glc
Method in brief: as §1

[12] = molecular target: Gal(b1-3)GalNAc(a1-3)[Fuc(a1-2)]Gal(b1-4)GlcNAc
Method in brief: as §1

Gal(b1-3)GalNAc(b1-3)Gal = molecular target: Gal(b1-3)GalNAc(b1-3)Gal
Method in brief: as §1

[13] = molecular target: Gal(b1-3)GalNAc(b1-3)Gal(a1-4)Gal(b1-4)Glc
Method in brief: as §1

[14] = molecular target: Gal(b1-3)GalNAc(b1-4)Gal(b1-4)Glc
Method in brief: as §1

[15] = molecular target: Gal(b1-3)GalNAc(b1-4)[Neu5Ac(a2-3)]Gal(b1-4)Glc
Method in brief: as §1

Gal(b1-3)GlcNAc = molecular target: Gal(b1-3)GlcNAc
Method in brief: as §1

[16] = molecular target: Gal(b1-3)GlcNAc(a1-3)Gal(b1-4)GlcNAc
Method in brief: as §1

[17] = molecular target: Gal(b1-3)GlcNAc(a1-6)Gal(b1-4)GlcNAc
Method in brief: as §1

Gal(b1-3)GlcNAc(b1-2)Man = molecular target: Gal(b1-3)GlcNAc(b1-2)Man
Method in brief: as §1

[18] = molecular target: Gal(b1-3)GlcNAc(b1-2)Man(a1-3)[Gal(b1-3)GlcNAc(b1-2)Man(a1-6)]Man(b1-4)GlcNAc(b1-4)GlcNAc
Method in brief: as §1

[19] = molecular target: Gal(b1-3)GlcNAc(b1-2)Man(a1-3)[Gal(b1-3)GlcNAc(b1-2)Man(a1-6)]Man(b1-4)GlcNAc(b1-4)[Fuc(a1-6)]GlcNAc
Method in brief: as §1

[20] = molecular target: Gal(b1-3)GlcNAc(b1-2)Man(a1-3)[GlcNAc(b1-4)][Gal(b1-3)GlcNAc(b1-2)Man(a1-6)]Man(b1-4)GlcNAc(b1-4)GlcNAc
Method in brief: as §1

[21] = molecular target: Gal(b1-3)GlcNAc(b1-2)[Gal(b1-3)GlcNAc(b1-6)]Man(a1-6)[Gal(b1-3)GlcNAc(b1-2)Man(a1-3)]Man(b1-4)GlcNAc(b1-4)GlcNAc
Method in brief: as §1

[22] = molecular target: Gal(b1-3)GlcNAc(b1-3)Gal(b1-3)GlcNAc
Method in brief: as §1

[23] = molecular target: Gal(b1-3)GlcNAc(b1-3)Gal(b1-4)Glc
Method in brief: as §1

[24] = molecular target: Gal(b1-3)GlcNAc(b1-3)Gal(b1-4)GlcNAc
Method in brief: as §1

[25] = molecular target: Gal(b1-3)GlcNAc(b1-3)Gal(b1-4)GlcNAc(b1-2)Man(a1-3)[Gal(b1-3)GlcNAc(b1-3)Gal(b1-4)GlcNAc(b1-2)Man(a1-6)]Man(b1-4)GlcNAc(b1-4)GlcNAc
Method in brief: as §1

B1: FliC (Pseudomonas aeruginosa), P72151 (protein)
chain: MALTVNTNIASLNTQRNLNASSNDLNTSLQRLTTGYRINSAKDDAAGLQISNRLSNQISGLNVATRNANDGISLAQTAEGALQQSTNILQRIRDLALQSANGSNSDADRAALQKEVAAQQAELTRISDTTTFGGRKLLDGSFGTTSFQVGSNAYETIDISLQNASASAIGSYQVGSNGAGTVASVAGTATASGIASGTVNLVGGGQVKNIAIAAGDSAKAIAEKMDGAIPNLSARARTVFTADVSGVTGGSLNFDVTVGSNTVSLAGVTSTQDLADQLNSNSSKLGITASINDKGVLTITSATGENVKFGAQTGTATAGQVAVKVQGSDGKFEAAAKNVVAAGTAATTTIVTGYVQLNSPTAYSVSGTGTQASQVFGNASAAQKSSVASVDISTADGAQNAIAVVDNALAAIDAQRADLGAVQNRFKNTIDNLTNISENATNARSRIKDTDFAAETAALSKNQVLQQAGTAILAQANQLPQAVLSLLR
glycan array binding signal (z-score) [1]: -0.035 | glycan array binding signal (z-score) [2]: -0.178 | glycan array binding signal (z-score) [3]: -0.202 | glycan array binding signal (z-score) [4]: 0.774 | glycan array binding signal (z-score) [5]: 0.903 | glycan array binding signal (z-score) [6]: -0.136 | glycan array binding signal (z-score) (Gal(a1-3)GalNAc): 0.02 | glycan array binding signal (z-score) [7]: -0.061 | glycan array binding signal (z-score) [8]: -0.081 | glycan array binding signal (z-score) (Gal(a1-4)Gal(b1-4)Glc): -0.183 | glycan array binding signal (z-score) (Gal(a1-4)Gal(b1-4)GlcNAc): 0.061 | glycan array binding signal (z-score) [9]: -0.165 | glycan array binding signal (z-score) [10]: -0.119 | glycan array binding signal (z-score) (Gal(a1-4)GlcNAc): 1.07 | glycan array binding signal (z-score) (Gal(a1-6)Glc): -0.258 | glycan array binding signal (z-score) (Gal(b1-2)Gal): 0.927 | glycan array binding signal (z-score) (Gal(b1-3)Gal): -0.208 | glycan array binding signal (z-score) (Gal(b1-3)Gal(b1-4)GlcNAc): -0.198 | glycan array binding signal (z-score) (Gal(b1-3)GalNAc): 0.004 | glycan array binding signal (z-score) [11]: -0.091 | glycan array binding signal (z-score) [12]: -0.136 | glycan array binding signal (z-score) (Gal(b1-3)GalNAc(b1-3)Gal): -0.232 | glycan array binding signal (z-score) [13]: -0.11 | glycan array binding signal (z-score) [14]: -0.162 | glycan array binding signal (z-score) [15]: 0.001 | glycan array binding signal (z-score) (Gal(b1-3)GlcNAc): -0.179 | glycan array binding signal (z-score) [16]: -0.119 | glycan array binding signal (z-score) [17]: -0.215 | glycan array binding signal (z-score) (Gal(b1-3)GlcNAc(b1-2)Man): -0.213 | glycan array binding signal (z-score) [18]: -0.121 | glycan array binding signal (z-score) [19]: -0.117 | glycan array binding signal (z-score) [20]: -0.213 | glycan array binding signal (z-score) [21]: -0.192 | glycan array binding signal (z-score) [22]: -0.235 | glycan array binding signal (z-score) [23]: -0.203 | glycan array binding signal (z-score) [24]: -0.2 | glycan array binding signal (z-score) [25]: -0.073
